We go through 29 compounds from the antibiotic and cytotoxicity screens of Wong et al. (2023).

Each structure is given as a SMILES string. Some of the results follow.

For one assay, the system named is HSkMC (human skeletal muscle cells). The assay is described as follows: cytotoxicity call (relative viability < 0.9). The settings on record: 10 µM.
In the case of `C[C@H]1CCCCO[C@@H](CN(C)Cc2ccccc2)[C@@H](C)CN([C@@H](C)CO)C(=O)c2cc(NS(=O)(=O)c3ccc(Cl)cc3)ccc2O1`, the cytotoxicity call is “inactive”.

With `CCCC#Cc1cnc2c(c1)C(=O)N([C@H](C)CO)C[C@H](C)[C@H](CN(C)C(=O)c1ccc3c(c1)OCO3)O2`, the cytotoxicity call is “inactive”.

As to `CC(C)NC(=O)Nc1ccc2c(c1)C(=O)N([C@H](C)CO)C[C@@H](C)[C@H](CN(C)S(=O)(=O)c1cn(C)cn1)OCCCC[C@@H](C)O2`, the cytotoxicity call is “inactive”.

As for `C[C@@H]1CCCCO[C@H](CN(C)CC2CCCCC2)[C@H](C)CN([C@H](C)CO)C(=O)c2cc(NC(=O)CCCN(C)C)ccc2O1`, the cytotoxicity call was “inactive”.

On to `COCC(=O)N1C[C@@H](C(=O)N2CCCO2)C[C@@H]2OCC[C@@H]21`, for which the cytotoxicity call was “inactive”.

As to `Cc1noc(C)c1S(=O)(=O)Nc1ccc2c(c1)C(=O)N([C@H](C)CO)C[C@H](C)[C@@H](CN(C)C(=O)Nc1ccc(C(F)(F)F)cc1)OCCCC[C@@H](C)O2`, the cytotoxicity call is “inactive”.

For `C[C@@H]1CN([C@H](C)CO)C(=O)Cc2cc(NC(=O)CCC(F)(F)F)ccc2O[C@H]1CN(C)Cc1ccc(C(F)(F)F)cc1`, the cytotoxicity call was “inactive”.

On to `COCC#Cc1cnc2c(c1)C(=O)N([C@@H](C)CO)C[C@H](C)[C@@H](CN(C)C(=O)Nc1ccc(OC)cc1)O2`, for which the cytotoxicity call is “inactive”.

With `O=C(C[C@@H]1CC[C@@H]2[C@H](COC[C@@H](O)CN2S(=O)(=O)c2ccccc2)O1)N1CCc2ccccc2C1`, the cytotoxicity call was “inactive”.

Regarding `C[C@H](CO)N1C[C@H](C)[C@@H](CN(C)C(=O)c2cccc(F)c2)Oc2cc(-c3cncnc3)ccc2S1(=O)=O`, the cytotoxicity call was “inactive”.

The subject of another assay is HepG2. In words: cytotoxicity call (relative viability < 0.9). The settings on record: 10 µM.
Take `Nc1nc(/C(=C/CC(=O)O)C(=O)N[C@@H]2C(=O)N3C(C(=O)O)=CCS[C@H]23)cs1`: the cytotoxicity call is “inactive”.

As to `CC[C@@]1(C)CC(=O)NC1=O`, the cytotoxicity call is “inactive”.

In the case of `C[C@@H]1CN([C@@H](C)CO)C(=O)Cc2cc(NS(=O)(=O)c3cccs3)ccc2O[C@H]1CN(C)S(C)(=O)=O`, the cytotoxicity call was “inactive”.

In the case of `COc1ccc2c3c([nH]c2c1)[C@H](CO)N(C[C@]13CCN(CC1)CC1CCCC1)C(=O)CN1CCOCC1`, the cytotoxicity call was “inactive”.

With `C[C@@H]1CN([C@@H](C)CO)C(=O)Cc2cc(NC(=O)NC3CCCCC3)ccc2O[C@H]1CN(C)Cc1ccc(C(=O)Nc2ccccc2N)cc1`, the cytotoxicity call was “inactive”.

For `C[C@@H]1CN([C@H](C)CO)C(=O)Cc2cc(NC(=O)C3CC3)ccc2O[C@@H]1CN(C)Cc1ccc(Oc2ccccc2)cc1`, the cytotoxicity call is “active”.

Turning to `C[C@H](CO)N1C[C@H](C)[C@H](CN(C)C(=O)Nc2ccc(F)cc2)Oc2ccc(NS(C)(=O)=O)cc2CC1=O`, the cytotoxicity call was “inactive”.

Turning to `COC(=O)c1ccc(C(=O)OC)nc1`, the cytotoxicity call is “active”.

In the case of `CCOC(=O)CCCCCC(=O)Nc1ccc2c(c1)C(=O)N([C@@H](C)CO)C[C@H](C)[C@H](CN(C)S(C)(=O)=O)O2`, the cytotoxicity call is “inactive”.

As for `Cc1ccc(S(=O)(=O)N(C)C[C@H]2Oc3ccc(NC(=O)Nc4cccc5ccccc45)cc3CC(=O)N([C@H](C)CO)C[C@@H]2C)cc1`, the cytotoxicity call is “inactive”.

As to `COCCOC(=O)N1C(=O)[C@@]2(c3cc(C#CCC(C(=O)OC)C(=O)OC)ccc31)[C@H](C(=O)Nc1nc3ccccc3s1)[C@H]1C(=O)O[C@H](c3ccccc3)[C@H](c3ccccc3)N1[C@@H]2c1ccccc1OCCO`, the cytotoxicity call was “inactive”.

`O=C(C[C@@H]1C[C@H]2c3cc(NS(=O)(=O)c4ccc(F)cc4)ccc3O[C@H]2[C@H](CO)O1)NC1CCCCC1`: the cytotoxicity call is “inactive”.

For `COc1ccc(CN(C)C[C@@H]2OCCCC[C@H](C)Oc3ccc(NS(=O)(=O)c4ccc(OC)cc4)cc3C(=O)N([C@H](C)CO)C[C@@H]2C)cc1`, the cytotoxicity call is “inactive”.

`CN(C)CC#Cc1ccc([C@H]2[C@H](CO)N3CCCCN(C(=O)CN(C)C)C[C@@H]23)cc1`: the cytotoxicity call is “inactive”.

On to `C[C@@H]1CN([C@@H](C)CO)C(=O)Cc2cc(NC(=O)Cn3cnnn3)ccc2O[C@H]1CN(C)C(=O)Nc1ccc2c(c1)OCO2`, for which the cytotoxicity call was “inactive”.

With `COc1ccc([C@H]([C@@H](O)Cc2ccccc2)N(C/C=C/[C@@H](O)c2ccccc2)[C@@H](Cc2ccccc2)C(OC)OC)cc1`, the cytotoxicity call was “inactive”.

Turning to `Cc1cc(C(=O)Nc2ccc3c(c2)C(=O)N(C)[C@H]2CC[C@@H](CC(=O)NCC(F)(F)F)O[C@H]2CO3)no1`, the cytotoxicity call was “inactive”.

With `CNC(=O)C[C@H]1CC[C@H]2[C@@H](COC[C@H](O)CN2C(=O)c2ccc3c(c2)OCO3)O1`, the cytotoxicity call is “inactive”.

Turning to `C[C@H]1CN([C@@H](C)CO)C(=O)c2cc(NS(=O)(=O)c3cn(C)cn3)ccc2O[C@H]1CN(C)CC1CCCCC1`, the cytotoxicity call was “inactive”.
